Measurements from the supplement of paper PMC10126150.
Values marked as one replicate rest on one cluster of the flow cell; about a third of the high ones do not repeat.

System: ATP
Assay: switch fluorescence ratio, 500 uM ATP over buffer (Cy3 cluster intensity, sum of 5 cycles each) (fold (ratio)); higher = stronger signal-on switching upon ATP binding; sequences stand for … in TCGTCGGCAGCGTCAGATGTGTATAAGAGACAGTTTTTTTTTTTTTTTTTTTTTTTTT…TC
Conditions: aptamer strand: ATP DNA aptamer (quencher-CACCTGGGGGAGTATTGCGGAGGAAGG + anchor), 100 nM annealed; ATP concentration: 500 uM; one replicate
Summary of the method: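 Between each of five buffer/ATP cycles, the flow-cell was stripped with NaOH and re-annealed. Each cycle imaged Cy3-labelled switching-strand clusters, annealed to 100 nM quencher-labelled ATP aptamer on a modified Illumina MiSeq flow-cell, first in selection buffer and then after 15 min with 500 uM ATP at 22 °C. The fluorescence ratio is summed target-cycle over summed buffer-cycle Cy3 intensity per cluster, averaged per switch-domain sequence, with clusters outside 100-1000 RFU excluded.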
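Note: ATP exposure 15 min at 22 °C before imaging.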

Sequence	switch fluorescence ratio
TTCTGGTTGG	0.914
GGGGCAAGAA	1.17
GGCGGGGCC	1
GCAATAAGGA	1.19
CAGTATCAGG	0.952
TGTGATTAGC	1.04
CACACGAAAC	1.2
AAGAGTCGTT	1.06
GAGCCTAACC	1.03
GCGTTCATAT	0.984
CGTTCGGA	1.02
GCGAGAGAGG	0.995
TTGACCATCC	1.83
GCCCTCAGGT	1.77
TAGTCAGGAC	1.05
ATAATGGGAG	0.999
CCCTACAGGT	1.6
ACTTAGCGG	1.04
GCTGTCCATA	1.02
CCTAGATGGT	0.971
ACGATTATGG	1.06
ACGAATCAAG	0.991
GAGGCTTCAG	0.991

Sequence	switch fluorescence ratio
ACACGATGCG	1.01
CCACTACCCC	1.15
CTTTTCCGTG	1.04
TCCTAGCTG	0.964
GACCCGGTGA	1.82
TGGTGAGGAC	1.02
TAGGGCAGGC	0.599
ATTTAACCGC	1.3
GCAGTGACTT	1.05
TTGAATCAC	1.02
CATCTATACC	1.04
TTCGCAAATT	2.11
GGCTATCACT	1.02
AGTGGGACGT	0.977
ATTTCGGATT	1.01
CCACTTATTT	1.04
TGATTCGCAG	1.14
AACGGTTAGC	1.02
GCTAGTCAAG	0.984
GGATACCAC	1.03
TTTCTCTGCT	1.03
TTCGGCGGCG	1.05
TATGCGGGAG	0.995

Sequence	switch fluorescence ratio
AGGCGTTCAC	1.07
GTAGGGGTAG	0.979
GGGATAGGTC	1.04
AAGAAAGGAT	0.99
AAGTACAATT	1.2
CAGAGCGTGG	0.993
TACGTACCCG	1.33
CAGCAGGTCA	0.962
GAGCTGGGAT	1.01
CCAAATTTCG	1.04
TTAAAGAGAC	1.01
TGCCAGGCGC	1.07
ATTTTACATA	1.03
GTGAGGAAAA	1.04
TCACCTCGAG	0.969
CGCATAGGGG	1.29
TTGAGTTAGC	1.09
GTAAGGTGAT	1.1
GACTTATGAA	1.01
ACGATCTATT	0.974
TTATATCGA	1.02
GGTTGGAGAA	0.965
TTTAAAGGA	0.974

Sequence	switch fluorescence ratio
CCATATCCGG	1.04
AAATCGAATG	0.97
CAAAGATTTA	0.989
GTTAGTCGA	1.02
GCTTTAGGCG	0.977
TCGGGCGGC	1.01
TACCACCAGC	1.23
TTGAGGAGCA	0.995
GGTACACCTC	1.02
AGGGTTCAAG	0.968
CGGTCTTGCA	0.993
TCCGGACAAT	2.95
CAGTGGGCAG	1.01
TCGTTTCGTA	0.978
GGAAGCTGCG	1.13
GACCACGGGT	1.04
TGCCTGATT	1.03
GGTTTAAAAG	0.974
TGTTAGGATA	1.05
TGGGCTTTTG	1.69
AAAAACATTA	1.05
AGCGCTTTAA	1.03
ACGAGAGACG	0.99

Sequence	switch fluorescence ratio
TATACTTGCT	1.03
CTGATGACAA	1.09
ACGAGGGTCC	1.11
CACGGCATGT	1.09
CAAAGCCATA	1.05
CAACGGATAG	1.09
CTACAAGCAT	1.17
ATACGAGCGA	1.06
ATCGAGGGTT	0.976
CCCGGAAGGG	1.16
GAATCCTCCG	3.33
ATCCAGTTGG	1
CCCATGGTAA	1.02
AATTGTTAG	0.99
TGACTGGCAT	1.05
GTGTGAGTAT	0.96
TAAACTAAGT	1.03
CCGGGCCGGA	0.98
CGTGGACGGA	1
ACGGGTCTTG	1.03
GTGGGGAAA	1.3
GTTTGGGCGC	1.03
TCTACTTTTA	1.01

Sequence	switch fluorescence ratio
GAACTAGGAA	0.969
CGGAACTGAC	1.07
GATCGGGGTC	1
TCGTAGATCA	0.941
TTTTCCCCAT	1.04
TATGTTGGGA	1.02
AAATTCCGAA	0.993
ATCCGCCTGT	1.23
GTCGGTTCGT	1.01
ATCGGCGGGT	1.01
GTGGCTTACC	0.96
CGTCTTTGTA	0.979
AATTAGCTAT	1.01
TGGGAATGGA	1.03
TCAATAAGCC	1.02
AAAAGCGAGC	0.987
GGTGCTGCCA	0.973
TACGAAAAAG	1.09
GGCTACTCCT	1.62
TTAGTGTTGG	0.995
TACGCCGCGG	1.17
TAGCAAGTTA	1.04
GAGGTGTTTC	1

Sequence	switch fluorescence ratio
AATCGTAT	0.981
CGTTGTGTGG	0.976
AATCTGTGG	0.994
GGTCCTTTCG	1.02
CAAGGGAGTG	1.01
ATGAGGCTAA	1.02
GTTTTCCGCT	1.08
TTCCCAGCGC	1.16
AAAGCCCGTC	1.08
TAGTCCCTAT	1
AAAGGTGCA	1.06
TAGGTAGAGG	0.985
TGATGCTACT	1.06
ACACATGTCT	1.02
CATGTATC	1.03
TCTAACAGCA	1.03
AATGGTAGGC	0.968
TGCTATTGCT	1.04
ATGCGTCGAG	0.982
